± gives the standard deviation of the averaged measurements. In all, about 33,000 sequences were measured (“E-score (dimensionless, -0.5 to 0.5)”: median about -0.046, highest 2% from about 0.36 on). The list shows a part of the results.
Tested on: T1, SpTbr T-box DNA-binding domain (GST fusion)
T1 sequence: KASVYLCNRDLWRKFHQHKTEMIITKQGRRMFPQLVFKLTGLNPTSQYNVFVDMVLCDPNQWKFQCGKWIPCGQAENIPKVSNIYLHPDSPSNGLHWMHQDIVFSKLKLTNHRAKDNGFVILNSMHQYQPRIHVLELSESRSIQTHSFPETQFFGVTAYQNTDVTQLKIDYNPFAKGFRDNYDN
Experiment: PBM E-score of 8-mer (E-score (dimensionless, -0.5 to 0.5)); Tbr is Tbrain of the sea star Patiria miniata (Pm) or the sea urchin Strongylocentrotus purpuratus (Sp); higher = stronger binding preference; most listed sequences are background and not binding sites
Conditions: the construct has about 5 more residues each side
Description: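 Universal protein-binding microarray (Agilent AMADID 016060, 60-bp probes with a 35-bp variable region) incubated with 200 nM GST-fused Strongylocentrotus purpuratus Tbr T-box DNA-binding domain (residues 362-554) in PBS pH 7.5. Scored for every ungapped 8-mer (given with its reverse complement) as E-score (range -0.5 to 0.5; >0.45 counts as bound) and Z-score of median probe intensity. Two replicate arrays (datasets 1 and 2).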
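Also: protein at 200 nM in PBS on universal double-stranded arrays.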

Sequence | PBM E-score of 8-mer
CCGGAACC | -0.3379 ± 0.0032
CATGACTC | -0.203 ± 0.017
CTGGTGCA | -0.0587 ± 0.0083
TGGCGGAA | 0.00426 ± 0.036
TCCCCCAA | -0.0995 ± 0.0068
ACCGGAAA | -0.106 ± 0.0049
GGATTTAA | -0.255 ± 0.032
CTGTGATC | 0.271 ± 0.031
AAATCTAT | -0.142 ± 0.0023
GCCCATAC | -0.131 ± 0.035
GACTGTCA | 0.144 ± 0.037
CAAGGGAA | -0.249 ± 0.047
CTTTAATC | 0.0648 ± 0.12
CAGAAGTC | 0.00129 ± 0.0069
TATAGCAA | -0.00161 ± 0.023
ACCGCGCC | 0.0224 ± 0.099
AGTGAACC | -0.176 ± 0.084
CACGAAAG | -0.101 ± 0.019
GTCTTAAA | -0.138 ± 0.061
CATACGTC | -0.146 ± 0.039
ATAATCTA | -0.102 ± 0.077
GGCGTCCC | -0.252 ± 0.051
CGCCCTAA | -0.0107 ± 0.049
CAGCCAGC | -0.197 ± 0.042
ATAAGACC | -0.0531 ± 0.062

Sequence | PBM E-score of 8-mer
AACCTTGA | 0.0164 ± 0.045
CGCCGGAA | 0.103 ± 0.014
ACCGGCCT | -0.0405 ± 0.017
CTGTCCCC | -0.128 ± 0.04
GACACCAA | 0.327 ± 0.024
CTGTCCAA | 0.0304 ± 0.0091
GGTCTGAC | -0.0722 ± 0.053
CTTACTTC | 0.0909 ± 0.034
CGAAAGTA | 0.102 ± 0.06
GGGCGCCA | 0.103 ± 0.036
CCACCCTA | 0.0825 ± 0.11
CCATTTCG | 0.126 ± 0.016
GACTCGGA | -0.0707 ± 0.011
AACATAAC | 0.162 ± 0.0069
CCGATTAG | -0.0752 ± 0.075
ATCCTGGG | -0.235 ± 0.046
CCATTTAG | -0.0123 ± 0.0033
CACCTGGA | 0.297 ± 0.025
TCTTGTAA | -0.00011 ± 0.013
CTCGGTTA | -0.116 ± 0.045
ACGGAAGG | 0.00251 ± 0.053
CTATCAAA | -0.16 ± 0.067
CTCCGGGC | -0.239 ± 0.039
CCCCGAGC | -0.16 ± 0.044
TCAAGCCA | -0.0895 ± 0.0015

Sequence | PBM E-score of 8-mer
AGATGCTG | -0.151 ± 0.043
GCGTGCCC | -0.285 ± 0.1
GAAAGGTA | -0.0855 ± 0.047
CCTACGAG | -0.119 ± 0.036
CCTAGAGA | -0.13 ± 0.0086
GCAGCTGC | 0.000255 ± 0.034
TCGGCGCA | -0.193 ± 0.0032
AAAAACCC | -0.0852 ± 0.029
CTAGTGTA | 0.0859 ± 0.081
GATGCTCC | -0.18 ± 0.03
GTTTCATA | -0.268 ± 0.054
CGCAACGA | -0.0639 ± 0.012
ATTTCAGA | -0.188 ± 0.11
AACTTCGG | -0.204 ± 0.07
TTCGGCAA | -0.0157 ± 0.08
CAGATGCG | -0.139 ± 0.019
CTCAAAAA | 0.0658 ± 0.021
AAACTAGG | -0.16 ± 0.04
CGTTCCAA | -0.0379 ± 0.052
TAAGAAAA | -0.215 ± 0.13
GTTGAACA | -0.0139 ± 0.077
GGTCCCCA | -0.0658 ± 0.0046
AGCCCTCA | -0.0251 ± 0.02
GCCCGTAC | -0.119 ± 0.012
CCACAAAC | 0.0853 ± 0.026

Sequence | PBM E-score of 8-mer
GGTCTGCA | -0.105 ± 0.029
ACGCTCAT | -0.0367 ± 0.051
CGCTACGC | 0.169 ± 0.025
AAAGGGAC | -0.175 ± 0.0097
ATTTCGGG | 0.0907 ± 0.092
ACTCGACA | 0.24 ± 0.029
CTTTATAA | -0.144 ± 0.059
ACTGGTAT | -0.125 ± 0.069
ACCGGGTC | 0.0309 ± 0.053
CTACGATC | -0.0614 ± 0.015
CGGCGTAG | -0.0938 ± 0.085
ACATTTAC | 0.0595 ± 0.061
ACAATTGC | 0.265 ± 0.036
ATTCAGAC | -0.11 ± 0.0071
CCTAGTGA | 0.0721 ± 0.072
CTAAAGGC | -0.0335 ± 0.042
CGTTTTTA | -0.0675 ± 0.078
GGGCATAC | -0.246 ± 0.087
CTCTGTCA | -0.0399 ± 0.02
CCCTGCGA | 0.23 ± 0.044
CGTCGGCA | 0.176 ± 0.047
CGTCGCAA | 0.168 ± 0.074
CGGCGTGA | 0.33 ± 0.047
CCTACCAA | -0.134 ± 0.099
AGGGTGCA | 0.188 ± 0.025

Sequence | PBM E-score of 8-mer
AACTTGAA | -0.165 ± 0.064
CTTTCTGA | -0.136 ± 0.0074
AAATCACC | 0.15 ± 0.054
GCACAGGA | -0.165 ± 0.11
GTCAAAGA | 0.0178 ± 0.017
AATCCGCT | -0.0264 ± 0.074
GGATATAC | -0.128 ± 0.0093
TACGTAGA | -0.178 ± 0.03
ACAGCTCA | 0.267 ± 0.0069
CATTCCGC | -0.141 ± 0.011
ATAGACAG | 0.031 ± 0.055
CTCGGTTC | 0.0332 ± 0.0022
AAGTATTC | -0.169 ± 0.032
AGAGTGCT | -0.0252 ± 0.00083
CAGCTCAA | -0.0425 ± 0.024
ATTTGGCC | -0.0948 ± 0.054
AACGCCTT | 0.367 ± 0.041
ATCATAAT | -0.12 ± 0.018
CGGCGTTA | 0.182 ± 0.0041
ATTGAGCC | -0.00974 ± 0.0028
CAGTTTGC | 0.177 ± 0.02
CATAAAGG | -0.201 ± 0.0029
CCTCCTAA | -0.2059 ± 0.001
CAGTCTCC | -0.203 ± 0.075
GATAGACC | -0.237 ± 0.014

Sequence | PBM E-score of 8-mer
ATAAAAAC | -0.268 ± 0.15
CACCAGGC | 0.0753 ± 0.055
TATAAGGA | -0.225 ± 0.034
TAAGTAGA | -0.00118 ± 0.072
CACCTAAG | 0.383 ± 0.019
CCCTTCAG | -0.197 ± 0.012
ATCTCAGA | -0.101 ± 0.0026
CACCGATA | 0.0129 ± 0.1
AGTTATGG | -0.0468 ± 0.017
ATGATGCC | -0.0159 ± 0.0065
ATTCACGC | 0.424 ± 0.0061
GACTACGA | 0.0309 ± 0.02
GAAGCCCA | -0.236 ± 0.044
GATGTACC | -0.237 ± 0.025
AACCGGGC | -0.154 ± 0.04
CCGGTGCA | -0.182 ± 0.092
AGCTGTAA | 0.035 ± 0.08
CCGGCAGG | -0.0984 ± 0.018
CCTTTGAG | -0.17 ± 0.018
CTCATATC | -0.0945 ± 0.0071
TATGGTCA | -0.0991 ± 0.065
ATGAGGGA | -0.142 ± 0.035
AGATGTTG | 0.0448 ± 0.039
AGTTTAAA | 0.0237 ± 0.0037
AGGTCGGG | -0.212 ± 0.048

Sequence | PBM E-score of 8-mer
GACGCTCA | 0.0551 ± 0.034
GCAGAAGC | -0.189 ± 0.017
ACAGTTAT | 0.113 ± 0.024
AGCTAGCA | 0.0518 ± 0.0069
GACCCCAA | -0.164 ± 0.023
AATGCAGT | -0.188 ± 0.028
CCATGTGC | 0.205 ± 0.015
AGCCAGGG | -0.2 ± 0.055
ACTGGATG | -0.11 ± 0.062
AGCCTCTC | -0.0976 ± 0.019
CCACACCG | 0.226 ± 0.071
CAGCAGCG | -0.139 ± 0.038
CCTGCGAC | 0.175 ± 0.017
CGTAAGCA | 0.0121 ± 0.027
CAGTCCAG | -0.161 ± 0.049
AGATAAAC | -0.0463 ± 0.0019
CGGGCCAG | -0.142 ± 0.059
CTTGGGGC | 0.0489 ± 0.022
CAGCGCAA | -0.0911 ± 0.0026
AAGACATG | 0.0325 ± 0.038
GGCCCAAA | -0.218 ± 0.064
ACTGGACC | -0.203 ± 0.069

Reference: the supplement of paper PMC4166925
